From PubChem BioAssay (NCI)
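Results reflect a 48-hour exposure of cells in 96-well plates to compound at five concentrations. Abbreviation: GI50, concentration required for 50% inhibition of growth. TGI denotes the concentration required for complete inhibition of growth.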

What follows are compounds tested on NCI-H322M lung (assay: NCI anticancer screen, dose series, 48 h).

Compound | GI50 [µM] | TGI [µM]
O=C(c1ccc(Cl)cc1)C1[C@H](c2ccc(Br)cc2)[C@@H](c2ccccc2)NC12C(=O)Nc1ccc(Cl)cc12 (stereo partly specified) | 5.36 | 11.8
COc1cccc(-c2c(C#N)c(-c3ccc(Cl)cc3)nc3n[nH]c(-c4ccc(Cl)cc4)c23)c1 | 24 | > 100
NS(=O)(=O)c1ccc(N=Nc2c(O)n(CC(=O)Nc3ccccc3)c3ccccc23)cc1 | 2.45 | 7.8
